Biological target: TGF-β1
Experiment: cell-based or functional assay

B1: BJ-005-P4 (other)
heavy: QVQLQESGPGLVKPSETLSLTCTVTGDSITSGYWNWIRQPAGKGLEYMGYISYTGSTYYNPSLKSRLTISRDTSKNQYSLKLSSVTAADTAVYYCGSQREWLLHTDYWGQGTLVTVSSASTKGPSVFPLAPSSKSTSGGTAALGCLVKDYFPEPVTVSWNSGALTSGVHTFPAVLQSSGLYSLSSVVTVPSSSLGTQTYICNVNHKPSNTKVDKRV[human IgG1 Fc and a few adjoining residues not listed]GGGSGGGGSGGGGSGGGGSTIPPHVQKSVNNDMIVTDNNGAVKFPQLCKFCDVRFSTCDNQKSCMSNCSITSICEKPQEVCVAVWRKNDENITLETVCHDPKLPYHDFILEDAASPKCIMKEKKKPGETFFMCSCSSDECNDNIIFSEEYNTSNPD
light: DIVMTQSPDSLAVSLGERATINCKSSQSLLYTSNQKNSLAWYQQKPGQPPKLLIYWASTRESGVPDRFSGSGSGTDFTLTISSLQAEDVAVYYCQQYYGYPYTFGQGTKLEIKRTVAAPSVFIFPPSDEQLKSGTASVVCLLNNFYPREAKVQWKVDNALQSGNSQESVTEQDSKDSTYSLSSTLTLSKADYEKHKVYACEVTHQGLSSPVTKSFNRGEC
IC50 (nM), SEAP level of HEK-Blue TGF-β cells stimulated with TGF-β1: 0.0587 nM
